≈ marks a conversion by molar mass, not a printed value. Where “and” joins values, the source holds several entries; their conditions need not be identical. Equal values may be shown once. Read-outs that look alike come from different tables or passages of the source.
Legend:
[1] = tested on: tobacco mosaic virus (TMV); assay: whole plant or invertebrate; format: in vivo; settings: for Protective Activity against TMV: in vivo; for EC50 / pest or weed control at 500 µg/mL: Tobacco mosaic virus; for EC50: read-out: Protective EC50 against TMV; for pest or weed control at 500 µg/mL: topical, read-out: Protective Activity against TMV
[2] = tested on: tobacco mosaic virus (TMV); assay: whole plant or invertebrate; format: in vivo; settings: for Curative Activity against TMV: in vivo; for pest or weed control at 500 µg/mL / EC50: Tobacco mosaic virus; for pest or weed control at 500 µg/mL: topical, read-out: Curative Activity against TMV; for EC50: read-out: Curative EC50 against TMV
[3] = biological target: TMV coat protein (TMV CP) (Tobacco mosaic virus, UniProt P69687); assay: biochemical
Sequence of UniProt P69687 (P69687 whole entry): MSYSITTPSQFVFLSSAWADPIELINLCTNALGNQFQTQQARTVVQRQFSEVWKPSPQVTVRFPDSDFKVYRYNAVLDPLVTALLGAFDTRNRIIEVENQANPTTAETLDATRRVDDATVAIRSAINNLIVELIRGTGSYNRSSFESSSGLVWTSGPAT

[4] = 500 μg/mL, Nicotiana tabacum L. leaves, average of three replicates

| SMILES | Protective Activity against TMV [1, 4] | Curative Activity against TMV [2, 4] | further results |
| --- | --- | --- | --- |
| COP(=O)(OC)Oc1ccccc1/C=C/C(=O)/C=C/c1cccc(C(F)(F)F)c1 [3p] | 58.8% and 58.8 ± 2.4% | 34.3 ± 9.1% | – |
| COP(=O)(OC)Oc1ccccc1/C=C/C(=O)/C=C/c1ccccc1Cl [3e] | 51.9 ± 6.4% | 52.3 ± 3.7% | – |
| CCOP(=O)(OCC)Oc1ccccc1/C=C/C(=O)/C=C/c1ccc([N+](=O)[O-])cc1 [3j] | 63.8 ± 6.5% | – | EC50 [1]: 290 µg/mL (≈ 672 µM); pest or weed control at 500 µg/mL [1]: 63.8%; Kd [3]: 230 nM; pest or weed control at 500 µg/mL [2]: 20 ± 2.3% |
| CNCC(=O)N[C@@H](CO)C(=O)N[C@H]1[C@H](O)[C@@H](O)[C@H](n2ccc(N)nc2=O)O[C@@H]1C(N)=O [Ningnanmycin, ningnanmycin, reference compound] | – | – | pest or weed control at 500 µg/mL [1]: 56.2%; Protective Activity against TMV [1]: 56.2 ± 6.4%; Kd [3]: 520 nM; EC50 [2]: 386 µg/mL (≈ 871 µM); pest or weed control at 500 µg/mL [2]: 56.1%; Curative Activity against TMV [2]: 56.1 ± 2.5% |
| CCOP(=O)(OCC)Oc1ccccc1/C=C/C(=O)/C=C/c1cccc([N+](=O)[O-])c1 [3h] | 66.7 ± 2.1% | – | EC50 [1]: 104 µg/mL (≈ 242 µM); pest or weed control at 500 µg/mL [1]: 66.7%; Kd [3]: 28 nM; pest or weed control at 500 µg/mL [2]: 51.9 ± 2.2% |
| CCOP(=O)(OCC)Oc1ccccc1/C=C/C(=O)/C=C/c1cccc(C)c1 [3s] | 55.4 ± 5.5% | 63.4% and 63.4 ± 1.7% | EC50 [2]: 250 µg/mL (≈ 624 µM) |
| CCOP(=O)(OCC)Oc1ccccc1/C=C/C(=O)/C=C/c1ccccc1Cl [3f] | 53.7 ± 8.6% | 28.3 ± 3.6% | – |
| CCOP(=O)(OCC)Oc1ccccc1/C=C/C(=O)/C=C/c1ccc(Cl)cc1 [3b] | 48.6 ± 1.8% | 49.6 ± 2.2% | – |
| COP(=O)(OC)Oc1ccccc1/C=C/C(=O)/C=C/c1ccc(Cl)cc1 [3a, 2-((1E,4E)-5-(4-chlorophenyl)-3-oxopenta-1,4-dien-1-yl)phenyl dimethyl phosphate] | 42.5 ± 1.6% | 61.2% and 61.2 ± 8.5% | EC50 [2]: 270 µg/mL |
| CCOP(=O)(OCC)Oc1ccccc1/C=C/C(=O)/C=C/c1ccc(Br)cc1 [3o] | 49.6 ± 7.4% | 52.1 ± 8.9% | – |
| CCOP(=O)(OCC)Oc1ccccc1/C=C/C(=O)/C=C/c1ccc(C)cc1 [3k] | 56.7 ± 7.3% | 55.8 ± 3.2% | – |
| CCOP(=O)(OCC)Oc1ccccc1/C=C/C(=O)/C=C/c1cccc(C(F)(F)F)c1 [3q] | 55.8 ± 9.3% | 51.7 ± 3.9% | – |
| CCOP(=O)(OCC)Oc1ccccc1/C=C/C(=O)/C=C/c1ccc(OC)cc1 [3d] | 39.1 ± 7.0% | 35.4 ± 1.7% | – |
| COP(=O)(OC)Oc1ccccc1/C=C/C(=O)/C=C/c1ccccc1 [3l] | 45.1 ± 7.3% | 69.3% and 69.3 ± 8.1% | EC50 [2]: 239 µg/mL (≈ 666 µM) |
| COP(=O)(OC)Oc1ccccc1/C=C/C(=O)/C=C/c1cccc(C)c1 [3r] | 55.7 ± 9.5% | 50.7 ± 2.1% | – |
| COP(=O)(OC)Oc1ccccc1/C=C/C(=O)/C=C/c1ccc([N+](=O)[O-])cc1 [3i] | 53.6 ± 9.3% | 50.9 ± 2.0% | – |
| COP(=O)(OC)Oc1ccccc1/C=C/C(=O)/C=C/c1ccc(Br)cc1 [3n] | 56.3 ± 7.8% | 44.1 ± 5.5% | – |
| COc1ccc(/C=C/C(=O)/C=C/c2ccccc2OP(=O)(OC)OC)cc1 [3c] | 42.8 ± 8.5% | 62.2% and 62.2 ± 8.5% | EC50 [2]: 335 µg/mL (≈ 864 µM) |
| CCOP(=O)(OCC)Oc1ccccc1/C=C/C(=O)/C=C/c1ccccc1 [3m] | 56.7 ± 6.4% | 48.1 ± 9.1% | – |
